# B1: metabotropic glutamate receptor 2 (mGlu2) (receptor)
# chain: EGPAKKVLTLEGDLVLGGLFPVHQKGGPAEDCGPVNEHRGIQRLEAMLFALDRINRDPHLLPGVRLGAHILDSCSKDTHALEQALDFVRASLSRGADGSRHICPDGSYATHGDAPTAITGVIGGSYSDVSIQVANLLRLFQIPQISYASTSAKLSDKSRYDYFARTVPPDFFQAKAMAEILRFFNWTYVSTVASEGDYGETGIEAFELEARARNICVATSEKVGRAMSRAAFEGVVRALLQKPSARVAVLFTRSEDARELLAASQRLNASFTWVASDGWGALESVVAGSEGAAEGAITIELASYPISDFASYFQSLDPWNNSRNPWFREFWEQRFRCSFRQRDCAAHSLRAVPFEQESKIMFVVNAVYAMAHALHNMHRALCPNTTRLCDAMRPVNGRRLYKDFVLNVKFDAPFRPADTHNEVRFDRFGDGIGRYNIFTYLRAGSGRYRYQKVGYWAEGLTLDTSLIPWASPSAGPLPASRCSEPCLQNEVKSVQPGEVCCWLCIPCQPYEYRLDEFTCADCGLGYWPNASLTGCFELPQEYIRWGDAWAVGPVTIACLGALATLFVLGVFVRHNATPVVKASGRELCYILLGGVFLCYCMTFIFIAKPSTAVCTLRRLGLGTAFSVCYSALLTKTNRIARIFGGAREGAQRPRFISPASQVAICLALISGQLLIVVAWLVVEAPGTGKETAPERREVVTLRCNHRDASMLGSLAYNVLLIALCTLYAFKTRKCPENFNEAKFIGFTMYTTCIIWLAFLPIFYVTSSDYRVQTTTMCVSVSLSGSVVLGCLFAPKLHIILFQPQKNVVSHRAPTSRFGSAAARASSSLGQGSGSQFVPTVCNGREVVDSTTSSL
# B2: SNAP-tagged mGlu2 WT (receptor)
# chain: B1 chain
# modifications: fluorophore covalently attached (SNAP tag)
# Tests used:
# [1] = target: the molecule itself; assay: cryo-EM structure
# [2] = target: the molecule itself; assay: cross-linking
Protein,stoichiometry N [1],stoichiometry N [2]
B1,2,–
B2,–,2
